In all, about 33,000 sequences were measured (“E-score (-0.5 to 0.5)”: median about -0.041, highest 2% from about 0.37 on). This is one part of the list.
What follows are sequences tested against T1, Ecm22 (UniProt Q05958) (assay: PBM E-score (8-mer binding enrichment) (E-score (-0.5 to 0.5)); higher = stronger / more preferred TF binding; most listed sequences are background and not binding sites). Settings: protein concentration: 200 nM; construct: GST-full length.
T1 sequence: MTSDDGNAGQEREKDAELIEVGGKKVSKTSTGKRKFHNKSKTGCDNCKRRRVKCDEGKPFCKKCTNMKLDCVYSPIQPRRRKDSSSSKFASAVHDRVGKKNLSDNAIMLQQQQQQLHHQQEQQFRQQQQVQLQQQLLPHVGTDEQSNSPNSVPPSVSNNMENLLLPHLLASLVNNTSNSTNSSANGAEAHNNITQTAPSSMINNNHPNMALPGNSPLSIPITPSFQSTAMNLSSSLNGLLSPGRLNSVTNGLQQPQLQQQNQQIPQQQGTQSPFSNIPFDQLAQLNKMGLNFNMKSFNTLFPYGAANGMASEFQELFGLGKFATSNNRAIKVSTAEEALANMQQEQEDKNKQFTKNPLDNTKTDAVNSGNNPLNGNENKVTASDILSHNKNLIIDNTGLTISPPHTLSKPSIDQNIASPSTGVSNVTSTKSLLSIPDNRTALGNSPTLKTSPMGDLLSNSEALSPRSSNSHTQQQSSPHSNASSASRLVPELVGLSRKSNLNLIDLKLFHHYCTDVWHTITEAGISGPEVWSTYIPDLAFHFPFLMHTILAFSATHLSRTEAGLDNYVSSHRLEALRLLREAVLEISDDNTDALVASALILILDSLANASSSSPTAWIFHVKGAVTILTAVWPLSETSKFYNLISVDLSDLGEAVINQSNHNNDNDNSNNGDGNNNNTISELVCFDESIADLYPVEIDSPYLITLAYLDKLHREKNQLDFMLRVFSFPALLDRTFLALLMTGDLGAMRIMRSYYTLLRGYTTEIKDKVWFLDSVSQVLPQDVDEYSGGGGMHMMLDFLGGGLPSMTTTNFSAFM
Outline: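 Bound GST-tagged yeast transcription factors, applied at about 100-200 nM to double-stranded universal all-10-mer Agilent arrays, were detected with fluorescent anti-GST. Scans were normalised with masliner. A modified Wilcoxon-Mann-Whitney statistic, the E-score, was assigned to each ungapped eight-base word pooled with its reverse complement by the Universal PBM Analysis Suite.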

| Sequence | PBM E-score |
| --- | --- |
| ACTCCACC | -0.142 |
| AGAGAACA | -0.11 |
| ACATAGCC | -0.282 |
| ATTCCCGC | -0.0217 |
| CCCGCTGA | -0.32 |
| AGGAGCCG | -0.0656 |
| CCCTATTC | -0.0484 |
| CCTAAGAG | -0.13 |
| ACTTGGGC | -0.318 |
| AGAGAACC | -0.155 |
| TGGCCCCA | -0.21 |
| AGTCACGC | -0.195 |
| CCGATCGA | 0.0683 |
| ACCTGCCT | -0.116 |
| CTAGATAG | -0.0351 |
| ATACGGAA | 0.374 |
| TCCCAGGA | -0.248 |
| GATAGAAA | -0.0382 |
| GAATTCCA | -0.108 |
| AAATCTTC | -0.0321 |
| CCCGGTCC | -0.0361 |
| CACGTGGG | -0.149 |
| AGAAAATA | 0.0171 |
| TTAAGAAA | -0.0929 |
| AAAAATAA | 0.115 |

| Sequence | PBM E-score |
| --- | --- |
| GCTCAAGC | -0.0228 |
| CCGTAGAA | 0.122 |
| ACCGCGAC | 0.0412 |
| GGACGCTA | -0.177 |
| AAGCTTGC | -0.144 |
| GGCCCATA | -0.179 |
| AGGTAGAG | -0.266 |
| CGGCAGTA | -0.0667 |
| ACAGCGAC | 0.0281 |
| ATTCCCGG | -0.114 |
| AGATACTG | -0.0213 |
| ACTCTCAC | -0.0437 |
| AATTGCGT | 0.0718 |
| CATAATAA | 0.175 |
| CCTGAATA | 0.101 |
| CACACAGC | -0.0697 |
| AATATTGC | 0.247 |
| AATGACGA | 0.0411 |
| CCTTGTCA | -0.245 |
| AGCGCTCA | -0.133 |
| AAATGTGA | -0.175 |
| CGAATTCG | 0.0698 |
| GAACGCGA | 0.206 |
| AGAGCAGA | -0.0559 |
| CGCGCACC | 0.129 |

| Sequence | PBM E-score |
| --- | --- |
| ATATGTAC | 0.115 |
| ACCGTATA | 0.459 |
| AAGCCGCT | -0.0703 |
| ATAGAAAA | 0.0894 |
| AGACGGAT | 0.0104 |
| CAGAGGCA | -0.193 |
| CTCGCCGA | 0.134 |
| AGTATAAT | -0.0427 |
| ACGTGTAC | 0.107 |
| AGGCGTTA | -0.223 |
| CAATCCAA | 0.0239 |
| ATCGGATC | 0.179 |
| CAAAGATA | -0.0644 |
| TACTACCA | -0.0787 |
| CGTCCAGA | -0.212 |
| GCATATCC | 0.0197 |
| CCGGACAC | -0.176 |
| ATCTTGCA | 0.0319 |
| GAAGCACC | -0.088 |
| CCGTGCAG | -0.127 |
| GACTACTC | 0.0944 |
| GTCGTAAA | 0.473 |
| CCAACACC | -0.253 |
| AAAACTCC | -0.211 |
| AAAGTGTG | -0.168 |

| Sequence | PBM E-score |
| --- | --- |
| ATTGGGAG | -0.187 |
| TAGCAATA | 0.153 |
| ACCAAAGA | -0.215 |
| CACTACTC | -0.0352 |
| AGAACAAT | -0.0916 |
| CGTATAGC | 0.477 |
| GGCATTGA | -0.0257 |
| AAATTCGA | -0.0581 |
| TCCACACA | -0.107 |
| AGATCGAC | 0.199 |
| CAGTGTCG | 0.069 |
| CTAAAAAG | -0.0394 |
| GCCAAGGC | -0.203 |
| AATATTTA | 0.0828 |
| ATGCACTG | -0.0645 |
| ACACGGTC | -0.0081 |
| AGTTACAG | -0.119 |
| CACGATAG | -0.065 |
| CCAAATGA | 0.134 |
| AGCTGGGC | -0.132 |
| GCAGTCAA | -0.00987 |
| GATCATTA | 0.0891 |
| CGAACGCC | 0.0398 |
| AGCGGAAT | -0.13 |
| ATCCAGCA | -0.158 |

| Sequence | PBM E-score |
| --- | --- |
| CCGCATAC | 0.163 |
| GCGTATAC | 0.406 |
| GGTCAGCA | 0.161 |
| ATGGAGTA | 0.0683 |
| AGGAGAAC | -0.0736 |
| CGTTGTAC | 0.275 |
| GTGAGGGA | -0.207 |
| TAAGCACA | 0.028 |
| GTCCTCAA | -0.0954 |
| AATTCTGA | -0.0999 |
| CGGGTCCC | -0.0346 |
| ATCCCATG | -0.299 |
| ATGTGCTC | 0.0294 |
| GACGCGGA | -0.00772 |
| CAACGTCG | 0.249 |
| CTCAAGGC | -0.203 |
| ATACACTC | 0.194 |
| CATATTAA | 0.12 |
| ACAGCCGG | 0.0245 |
| ACCAAGCA | -0.0685 |
| ACCGCCTA | -0.0229 |
| ACAGCACC | -0.276 |
| AGTTATGC | -0.0646 |
| CCATTTTC | -0.105 |
| GGTTTGGA | -0.0817 |

| Sequence | PBM E-score |
| --- | --- |
| ATGTCGTG | 0.0288 |
| AGTTATAA | -0.147 |
| CTAATTCA | -0.0319 |
| CGTACAAG | 0.416 |
| CGCATGTA | 0.0596 |
| AAGCTCGA | 0.0757 |
| ACTGTTAC | 0.137 |
| ATGTCTGA | -0.26 |
| CAGTGAAA | 0.0739 |
| ACATTAAC | 0.0785 |
| ACGAGGAT | 0.387 |
| AGTTCCGC | 0.09 |
| AGCGTCCT | -0.0237 |
| CTCCTTAC | -0.0103 |
| GTTTTTCA | -0.0423 |
| ATGGGATA | -0.134 |
| ATCGCATA | 0.289 |
| GAAAACCA | -0.164 |
| TGACTCAA | 0.0196 |
| ATCCAAAT | 0.0399 |
| GCGGGCCC | -0.241 |
| ATTCCCAA | -0.0415 |
| CCCTCTTC | 0.0455 |
| ACTGCTCA | 0.0103 |
| AGATTCCG | -0.132 |

| Sequence | PBM E-score |
| --- | --- |
| GGTCCTTA | -0.116 |
| CAAAAGGA | -0.01 |
| AGAGAGCT | -0.169 |
| CCAGGCCG | -0.0156 |
| CGCACATA | -0.0429 |
| AGTTGGGG | -0.126 |
| ATTCAAGA | -0.0721 |
| GACGAACA | 0.0113 |
| GGCAGAAA | 0.156 |
| CGCTAGTC | -0.237 |
| GTCCTCAC | -0.152 |
| AACGGCTA | 0.151 |
| ATAGGCCC | -0.166 |
| AAGCAATA | -0.0375 |
| AAGTACAC | 0.12 |
| CTCGTCTA | 0.142 |
| AGACAGTG | -0.166 |
| GAAATCTA | 0.0244 |
| AGCACAGA | -0.0411 |
| AGACTTTA | -0.112 |
| AGGGAATG | -0.23 |
| CCTGTCGC | 0.0728 |
